Experimental data taken from the supplement of paper PMC3334620.
In all, about 33,000 sequences were measured (“E-score (-0.5 to 0.5)”: median about -0.04, highest 2% from about 0.36 on). The list shows a part of the results.

target: T1, Hmlalpha2 (UniProt P0CY09); assay: PBM E-score (8-mer binding enrichment) (E-score (-0.5 to 0.5)); higher = stronger / more preferred TF binding; most listed sequences are background and not binding sites; conditions: protein concentration: 200 nM; construct: GST-full length
T1 sequence: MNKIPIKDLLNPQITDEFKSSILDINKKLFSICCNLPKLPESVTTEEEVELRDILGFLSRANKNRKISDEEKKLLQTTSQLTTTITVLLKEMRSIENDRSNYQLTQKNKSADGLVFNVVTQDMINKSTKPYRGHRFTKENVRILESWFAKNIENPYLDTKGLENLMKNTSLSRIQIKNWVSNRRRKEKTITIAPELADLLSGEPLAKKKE
Method in brief: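 Full-length yeast transcription factors or their DNA-binding domains, GST-tagged and expressed with PURExpress, were applied at about 100-200 nM to universal all-10-mer Agilent arrays. These arrays had been made double-stranded by primer extension on fresh or once-stripped slides. Detection used fluorescent anti-GST, normalisation used masliner, and E-scores for ungapped eight-base words pooled with reverse complements came from the Universal PBM Analysis Suite.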

Sequence	PBM E-score
GGCATATA	0.028
ACCGCTGA	-0.122
AGGTGGGA	-0.14
AATAAACA	0.336
AATGGGAG	-0.0589
CGGCGACA	-0.175
ACGTTGTG	0.245
ACGTCTCC	-0.0447
GAGAAATC	0.0319
GACTCCGA	-0.196
CCAAACGC	0.0373
TGGGTAAA	0.00159
TAAAAACA	0.358
GCACAGCC	-0.194
ACCCGATG	-0.102
GCCGACAA	0.056
ATCTTTGA	-0.0584
GTCTTGAA	-0.099
AAGACTAG	-0.115
CTTCAGCA	-0.0759
AAGCCCGT	-0.195
AAGGGAGC	-0.399
ACCTGAAA	-0.0624
ACTTCCGG	-0.0549
CAGCGGTC	-0.297

Sequence	PBM E-score
AAGCATGT	0.377
GATAAAGC	-0.125
CCCAGTCA	-0.178
CCGGATCC	-0.197
GGGTGTAC	-0.0223
ACCTGACA	-0.0216
ACTATGTG	0.108
ATTACTGG	0.0471
GTAGTCGA	0.0958
AGTACATG	0.415
AGCGCAGG	-0.254
ACAGTCTC	-0.0119
CGCGAAGC	0.107
CGGCCACG	-0.281
CGATCACG	0.125
CAGCAGGC	0.00631
CGGACTAC	0.015
ACTTAGAG	-0.0528
GCACCTTA	-0.071
CAGGATTC	-0.11
ACTAATGA	-0.0279
GGAATTGA	0.04
ATTGAAAC	0.15
TCCGCTCA	-0.319
CACTCGTA	-0.0159

Sequence	PBM E-score
ACGTATTA	0.345
GGGTTACA	0.218
CTCGCAGA	-0.269
ATCCTACC	-0.148
AGCCGGTG	-0.121
AGGTGATC	-0.00387
GAGGGTAC	-0.16
ACGTCCAT	0.128
TAGAACTA	0.0464
CGGCAATA	0.0744
AGCCAGGC	0.0148
CTGGATCA	-0.0322
AAATGGCG	-0.151
CCTACGTA	0.256
CGAATTCA	-0.0293
TGATCACA	0.0151
GGAGTTCA	-0.0503
AGCAATGA	-0.221
AGCAACGG	-0.0919
ATGAGGCG	-0.102
ATCGGTTG	-0.0211
CTGGGGGC	-0.366
ACGATAGT	0.215
TCGTCGCA	-0.128
AACGAACT	-0.0965

Sequence	PBM E-score
CCAAACTA	0.101
GAGCTGCC	-0.217
CGGAAAGA	-0.159
CCATAACC	-0.131
GACACTGC	-0.0263
ATTTTTAG	-0.134
ACTCACGA	0.0238
CTCGACAG	-0.162
AAGGAGCA	-0.237
CACAATCC	0.0822
CTGGTGTC	-0.237
CAGTCACA	0.0879
CTAGGGGA	-0.41
AATCTCAT	0.14
AAATGTCG	0.117
AGCCAAAT	-0.0214
CCGTCTGC	-0.0191
TATTACAA	0.416
ATGCGGTA	-0.152
ACAACGAG	0.197
ACTGTCCA	0.0356
CCAAGACG	-0.13
CTTGTCGA	0.204
AGCTGGTC	-0.0222
AACCTATA	0.11

Sequence	PBM E-score
CGTCTAAG	-0.123
ATCGACAG	-0.186
GTTGTCTA	0.227
CACACAGA	0.221
AGCCTAAG	-0.223
ACCTGGAT	-0.292
TATCGATA	0.0495
GGAGTAGA	-0.0798
ACGCGTAT	0.357
ACCTATCT	-0.0687
AGCCCGAC	-0.218
ACTGTTTC	-0.0637
GACCCCTA	-0.294
GATCGAGC	-0.136
CCCACGTC	0.00442
CTTGCACA	0.0652
AATGAGGG	-0.128
GACAAAGC	-0.0561
CGCGGCAG	-0.165
GCCAGTCC	-0.35
AGAGCCAT	-0.0983
CTGCACTC	-0.131
AGACCCCG	-0.0968
CAGTTCCG	-0.244
ATGAGTCC	-0.0686

Sequence	PBM E-score
ATAAGCGC	0.0211
AAATTTGG	0.028
CTAGTGGC	-0.185
AATAGGCC	-0.0703
AACAGGTA	0.161
CGTCGAAC	0.0323
AGACAAAC	0.0402
CTTTAATA	0.147
CTACCGAG	-0.267
ACATGCAG	0.316
AAGCGTGA	-0.0159
CCGGATGA	-0.136
AGCAAGCC	-0.273
CCTCGACC	-0.136
CTCAGCGA	-0.0559
AACAAACT	0.272
CCACCCGG	-0.214
ACTCAAAG	0.0634
CAAACGAA	0.0785
ATGAGGTC	-0.194
AGTGGTCA	-0.302
GCCATCGC	-0.26
ATGAGGAC	-0.169
CGTTTGCC	-0.0866
AGATAATG	0.149

Sequence	PBM E-score
TGAAAAAA	0.0221
CACGCCGG	-0.102
ATTATTAA	0.169
ACAATCGA	0.0699
ACGCGCGG	0.067
CTCATAGA	-0.134
ACAAAGTG	-0.0986
TATACTGA	0.149
CACATGGA	0.197
TGATTCAA	0.14
ATGAATAC	0.236
TCGCCCAA	-0.0523
CAACCGGG	-0.128
AAGTGCAA	-0.0589
TGTGATAA	0.319
ATATGATG	0.0609
GTTGTAAA	0.385
TCCTAAGA	-0.132
ATGCACAA	0.0934
AAACATGG	0.349
AGGGCAGC	-0.199
ACCAGCGC	-0.189
